Results reported in the supplement of paper PMC4967469.

Key:
Assay in all cases: Viability of human cancer cell lines after 72 h of drug (GDSC screen)
Cisplatin = compound: N.N.[Cl][Pt][Cl] [Cisplatin]; details: top dose inferred
Description: (§1)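 Human cancer cell lines in 384-well plates, medium with 10% serum, drug for 72 h over a 256-fold dose range (nine 2-fold or five 4-fold steps up to the top dose). Adherent lines were fixed and stained with the nucleic acid dye Syto60, suspension lines read with resazurin; signal relative to control wells, capped at 0 and 100%. One two-parameter sigmoid per drug and line, fitted in a mixed model over all curves with the slope shared within a line.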

QL-XI-92 = compound: C=CC(=O)Nc1cc(NC(=O)c2ccc(C)c(NC(=O)c3ccno3)c2)cc(C(F)(F)F)c1 [QL-XI-92]; details: top dose 10.24 µM; top dose inferred
Description: as §1

EHT 1864 = compound: O=c1cc(CN2CCOCC2)occ1OCCCCCSc1ccnc2cc(C(F)(F)F)ccc12 [EHT 1864]; details: top dose 10 µM; top dose inferred
Description: as §1

WHI-P97 = compound: COc1cc2ncnc(Nc3cc(Br)c(O)c(Br)c3)c2cc1OC [WHI-P97]; details: top dose 10.24 µM; top dose inferred
Description: as §1

NU-7441 = compound: O=c1cc(N2CCOCC2)oc2c(-c3cccc4c3sc3ccccc34)cccc12 [NU-7441]; details: top dose 2 µM; top dose inferred
Description: as §1

Phenformin = compound: N=C(N)NC(=N)NCCc1ccccc1 [Phenformin]; details: top dose 4000 µM; top dose inferred
Description: as §1

Vinorelbine = compound: CCC1=C[C@@H]2CN(C1)Cc1c([nH]c3ccccc13)[C@@](C(=O)OC)(c1cc3c(cc1OC)N(C)[C@H]1[C@@](O)(C(=O)OC)[C@H](OC(C)=O)[C@]4(CC)C=CCN5CC[C@]31[C@@H]54)C2 [Vinorelbine]; details: top dose 0.064 µM; top dose inferred
Description: as §1

AG-014699 = compound: CNCc1ccc(-c2[nH]c3cc(F)cc4c3c2CCNC4=O)cc1 [AG-014699]; details: top dose 5 µM; top dose inferred
Description: as §1

XL-184 = compound: COc1cc2nccc(Oc3ccc(NC(=O)C4(C(=O)Nc5ccc(F)cc5)CC4)cc3)c2cc1OC [XL-184]; details: top dose 5.12 µM; top dose inferred
Description: as §1

Row | Cell Line | AUC (Cisplatin) | pIC50 (Cisplatin) | other results
1 | 8-MG-BA (glioma, adherent, top dose 10 µM) | 0.822 | 5.27 | –
2 | 22RV1 (prostate, adherent, top dose 10 µM) | 0.913 | < 5.00 | –
3 | 42-MG-BA (glioma, adherent, top dose 10 µM) | 0.924 | < 5.00 | –
4 | 201T (lung adenocarcinoma, adherent, top dose 10 µM) | 0.792 | 5.23 | –
5 | 451Lu (melanoma, adherent, top dose 10 µM) | 0.818 | 5.27 | –
6 | 639-V (bladder, adherent, top dose 10 µM) | 0.712 | 5.65 | –
7 | 647-V (bladder, adherent, top dose 10 µM) | 0.871 | 5.02 | –
8 | 697 (lymphoblastic leukaemia, suspension, top dose 10 µM) | 0.8 | 5.42 | –
9 | 5637 (bladder, adherent, top dose 10 µM) | 0.808 | 5.34 | –
10 | 8305C (thyroid, adherent, top dose 10 µM) | 0.946 | < 5.00 | –
11 | 8505C (thyroid, adherent, top dose 10 µM) | 0.865 | 5.01 | –
12 | 23132-87 (stomach, adherent, top dose 10 µM) | 0.969 | < 5.00 | –
13 | A3-KAW (B-cell lymphoma, suspension, top dose 10 µM) | 0.839 | 5.31 | –
14 | A4-Fuk (B-cell lymphoma, suspension, top dose 10 µM) | 0.85 | 5.09 | –
15 | A101D (melanoma, adherent, top dose 10 µM) | 0.732 | 5.47 | –
16 | A253 (head and neck, adherent, top dose 10 µM) | 0.862 | 5.09 | –
17 | A375 (melanoma, adherent, top dose 10 µM) | 0.634 | 5.87 | –
18 | A388 (skin, adherent, top dose 10 µM) | 0.874 | < 5.00 | –
19 | A427 (non-small cell lung carcinoma, adherent, top dose 10 µM) | 0.937 | < 5.00 | –
20 | A431 (skin, adherent, top dose 10 µM) | 0.959 | < 5.00 | –
21 | A498 (kidney, adherent, top dose 10 µM) | 0.878 | < 5.00 | –
22 | A704 (kidney, adherent, top dose 10 µM) | 0.97 | < 5.00 | –

Row | Cell Line | AUC (Cisplatin) | pIC50 (Cisplatin) | other results
23 | A2058 (melanoma, adherent, top dose 10 µM) | 0.79 | 5.41 | –
24 | ABC-1 (lung adenocarcinoma, adherent, top dose 10 µM) | 0.707 | 5.56 | –
25 | ACHN (kidney, adherent, top dose 10 µM) | 0.832 | 5.12 | –
26 | AGS (stomach, adherent, top dose 10 µM) | 0.92 | < 5.00 | –
27 | ALL-PO (lymphoblastic leukaemia, suspension, top dose 10 µM) | 0.872 | < 5.00 | –
28 | ALL-SIL (T-cell leukaemia, suspension, top dose 10 µM) | 0.907 | < 5.00 | –
29 | AM-38 (glioma, semi-adherent, top dose 10 µM) | 0.896 | < 5.00 | –
30 | AMO-1 (haematopoietic neoplasm, suspension, top dose 10 µM) | 0.966 | < 5.00 | –
31 | AN3-CA (endometrium, adherent, top dose 10 µM) | 0.84 | 5.11 | –
32 | ARH-77 (myeloma, suspension, top dose 10 µM) | 0.892 | < 5.00 | –
33 | ASH-3 (thyroid, adherent, top dose 10 µM) | 0.857 | 5.09 | –
34 | ATN-1 (T-cell lymphoblastic leukaemia, suspension, top dose 10 µM) | 0.883 | 5.02 | –
35 | AU565 (breast, adherent, top dose 10 µM) | 0.845 | 5.07 | –
36 | AsPC-1 (pancreas, adherent, top dose 10 µM) | 0.899 | < 5.00 | –
37 | BALL-1 (B-cell leukaemia, suspension, top dose 10 µM) | 0.923 | 5.10 | –
38 | BB30-HNC (head and neck, adherent, top dose 10 µM) | 0.825 | 5.23 | –
39 | BB49-HNC (head and neck, adherent, top dose 10 µM) | 0.941 | < 5.00 | –
40 | BB65-RCC (kidney, adherent, top dose 10 µM) | 0.729 | 5.50 | –
41 | BC-1 (B-cell lymphoma, suspension, top dose 10 µM) | 0.961 | < 5.00 | –
42 | BE2-M17 (neuroblastoma, adherent, top dose 10 µM) | 0.899 | < 5.00 | –
43 | BE-13 (lymphoblastic leukaemia, suspension, top dose 10 µM) | 0.944 | < 5.00 | –
44 | BFTC-905 (bladder, adherent, top dose 10 µM) | 0.747 | 5.55 | –

Row | Cell Line | AUC (Cisplatin) | pIC50 (Cisplatin) | other results
45 | BHT-101 (thyroid, adherent, top dose 10 µM) | 0.747 | 5.48 | –
46 | BICR10 (head and neck, adherent, top dose 10 µM) | 0.886 | < 5.00 | –
47 | BICR22 (head and neck, adherent, top dose 10 µM) | 0.776 | 5.34 | –
48 | BICR78 (head and neck, adherent, top dose 10 µM) | 0.811 | 5.20 | –
49 | BL-41 (Burkitt lymphoma, suspension, top dose 10 µM) | 0.877 | 5.21 | –
50 | BT-20 (breast, adherent, top dose 10 µM) | 0.922 | < 5.00 | –
51 | BT-474 (breast, adherent, top dose 10 µM) | 0.986 | < 5.00 | –
52 | BT-483 (breast, adherent, top dose 10 µM) | 0.972 | < 5.00 | –
53 | BT-549 (breast, adherent, top dose 10 µM) | 0.907 | < 5.00 | –
54 | BV-173 (chronic myeloid leukaemia, suspension, top dose 10 µM) | 0.791 | 5.41 | –
55 | Becker (glioma, adherent, top dose 10 µM) | 0.894 | < 5.00 | –
56 | BxPC-3 (pancreas, adherent, top dose 10 µM) | 0.837 | 5.11 | –
57 | C2BBe1 (large intestine, adherent, top dose 10 µM) | 0.881 | < 5.00 | –
58 | C3A (liver, adherent, top dose 10 µM) | 0.984 | < 5.00 | –
59 | C32 (melanoma, adherent, top dose 10 µM) | 0.817 | 5.22 | –
60 | C-4-I (cervix, adherent, top dose 10 µM) | 0.889 | < 5.00 | –
61 | C-33-A (cervix, adherent, top dose 10 µM) | 0.775 | 5.40 | –
62 | SW900 (lung squamous cell carcinoma, adherent) | – | – | AUC (QL-XI-92): 0.985; pIC50 (QL-XI-92): < 4.99; AUC (EHT 1864): 0.982; pIC50 (EHT 1864): < 5.00; AUC (WHI-P97): 0.98; pIC50 (WHI-P97): < 4.99; AUC (NU-7441): 0.966; pIC50 (NU-7441): < 5.70; AUC (Phenformin): 0.831; pIC50 (Phenformin): 2.51; AUC (Vinorelbine): 0.565; pIC50 (Vinorelbine): 8.21; AUC (AG-014699): 0.941; pIC50 (AG-014699): < 5.30; AUC (XL-184): 0.919; pIC50 (XL-184): < 5.29
63 | T47D (breast, adherent) | – | – | AUC (QL-XI-92): 0.968; pIC50 (QL-XI-92): < 4.99; AUC (EHT 1864): 0.879; pIC50 (EHT 1864): < 5.00; AUC (WHI-P97): 0.974; pIC50 (WHI-P97): < 4.99; AUC (NU-7441): 0.946; pIC50 (NU-7441): < 5.70; AUC (Phenformin): 0.828; pIC50 (Phenformin): < 2.40; AUC (Vinorelbine): 0.902; pIC50 (Vinorelbine): < 7.19; AUC (AG-014699): 0.912; pIC50 (AG-014699): < 5.30; AUC (XL-184): 0.918; pIC50 (XL-184): < 5.29
64 | TCCSUP (bladder, adherent) | – | – | AUC (QL-XI-92): 0.974; pIC50 (QL-XI-92): < 4.99; AUC (EHT 1864): 0.963; pIC50 (EHT 1864): < 5.00; AUC (WHI-P97): 0.979; pIC50 (WHI-P97): < 4.99; AUC (NU-7441): 0.971; pIC50 (NU-7441): < 5.70; AUC (Phenformin): 0.951; pIC50 (Phenformin): < 2.40; AUC (Vinorelbine): 0.683; pIC50 (Vinorelbine): 7.85; AUC (AG-014699): 0.971; pIC50 (AG-014699): < 5.30; AUC (XL-184): 0.958; pIC50 (XL-184): < 5.29
65 | U031 (kidney, adherent) | – | – | AUC (QL-XI-92): 0.973; pIC50 (QL-XI-92): < 4.99; AUC (EHT 1864): 0.88; pIC50 (EHT 1864): < 5.00; AUC (WHI-P97): 0.948; pIC50 (WHI-P97): < 4.99; AUC (NU-7441): 0.892; pIC50 (NU-7441): < 5.70; AUC (Phenformin): 0.81; pIC50 (Phenformin): 2.66; AUC (Vinorelbine): 0.969; pIC50 (Vinorelbine): < 7.19; AUC (AG-014699): 0.945; pIC50 (AG-014699): < 5.30; AUC (XL-184): 0.911; pIC50 (XL-184): < 5.29
66 | VM-CUB-1 (bladder, adherent) | – | – | AUC (QL-XI-92): 0.988; pIC50 (QL-XI-92): < 4.99; AUC (EHT 1864): 0.987; pIC50 (EHT 1864): < 5.00; AUC (WHI-P97): 0.955; pIC50 (WHI-P97): < 4.99; AUC (NU-7441): 0.939; pIC50 (NU-7441): < 5.70; AUC (Phenformin): 0.936; pIC50 (Phenformin): < 2.40; AUC (Vinorelbine): 0.755; pIC50 (Vinorelbine): 7.68; AUC (AG-014699): 0.987; pIC50 (AG-014699): < 5.30; AUC (XL-184): 0.978; pIC50 (XL-184): < 5.29

pIC50: −log10 of the molar value. By IC50 is meant the dose at which the fit gives 50% viability; where the fit passes the top or lowest dose, that dose stands as a limit. The AUC spans the tested range (256-fold, ending at the top dose) of the same fit; values near 1 show little effect. A top dose marked as inferred comes from the curve model; the source does not state it.
